The campaign covered roughly 220,000 compounds. About 16,000 (7.3%) were called active. Inconclusive means that the source gave no clear call. Such entries were picked first, then a sample of the others. The call rests on the fitted dose curve; in most records, active means well fitted inhibition curve with a large enough effect (not every such curve was filed as active); inconclusive means small, poorly fitted or top-dose-only effect, or another doubt; inactive means no such curve, though single readings can be large or run the other way. Potencies of inconclusive entries are left out as doubtful fits.
These molecules were tested against Aldehyde dehydrogenase 1A1 (Homo sapiens) (UniProt P00352) (assay: qHTS Assay for Inhibitors of Aldehyde Dehydrogenase 1 (ALDH1A1)). Conditions: Purified ALDH1A1, NADH fluorescence, propionaldehyde substrate; series mostly up to 75.3 µM; activity, negative = inhibition: at the top concentration.
Chain of UniProt P00352 (P00352 whole entry, looked up): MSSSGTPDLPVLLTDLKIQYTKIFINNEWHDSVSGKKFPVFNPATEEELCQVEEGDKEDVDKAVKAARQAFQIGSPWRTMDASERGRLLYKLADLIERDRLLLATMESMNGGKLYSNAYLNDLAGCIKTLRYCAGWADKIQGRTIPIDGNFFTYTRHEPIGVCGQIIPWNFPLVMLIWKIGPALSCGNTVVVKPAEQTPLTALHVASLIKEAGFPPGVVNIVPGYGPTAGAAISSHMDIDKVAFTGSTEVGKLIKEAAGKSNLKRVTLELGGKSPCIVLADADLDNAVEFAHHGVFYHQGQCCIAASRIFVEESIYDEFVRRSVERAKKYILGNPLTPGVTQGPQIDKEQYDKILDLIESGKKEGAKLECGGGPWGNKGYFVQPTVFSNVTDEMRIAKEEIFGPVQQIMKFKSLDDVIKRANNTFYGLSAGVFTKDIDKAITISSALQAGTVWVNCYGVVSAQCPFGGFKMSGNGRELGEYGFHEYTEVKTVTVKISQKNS
`COC(=O)C1=C2SC(C)C(=O)N2C(N)=C(C#N)C1c1cc(OC)c(OC)c(OC)c1` (stereo not drawn) was tested, and the “activity, negative = inhibition” value was inactive: 1.26%. `COc1ccc(N=Cc2c(O)ccc3ccccc23)cc1` was tested, and the Potency was inconclusive [inhibitor, single point]. With `CCCCn1c(=O)nc2n(-c3ccc(C)cc3)c3ccccc3cc-2c1=O` the Potency was inconclusive [inhibitor, partial curve]. With `Cc1cc(C)cc(-n2cccc2/C=C2/C(=N)N3C(=NC2=O)SN=C3S(C)(=O)=O)c1` the Potency was active: 5.01 µM. With `CCOC(=O)c1c(-c2ccccc2)csc1NC(=O)C(C)NCCCN1CCOCC1` (stereo not drawn) the “activity, negative = inhibition” value was inactive: -10.5%. For `CC(=O)Nc1ccc(C2=NNC(=NCC3CCCO3)SC2)cc1` (stereo not drawn), the Potency was inconclusive [inhibitor, partial curve]. In the case of `Cc1cc(C(=O)c2cnc(/N=C/N(C)C)s2)cc(C)c1O`, the “activity, negative = inhibition” value is reported as inactive: -2.31%. In the case of `O/C(=C\c1ccc2ccccc2n1)c1ccc(O)cc1O`, the Potency is reported as inconclusive [inhibitor, full curve, poor fit]. `Cc1ccnc2nc(C(=O)OCC(=O)N(CC(C)C)CC(C)C)nn12` was tested, and the “activity, negative = inhibition” value was inactive: -1.78%. In the case of `CC1(C)CC(=O)C(Br)=C(O)C1`, the Potency is reported as inconclusive [inhibitor, single point]. With `COc1ccccc1C(=O)NNC1=C(C(=O)C(F)(F)F)CCC1` the Potency was inconclusive [inhibitor, single point]. `COc1ccc(-c2nnn(CC#N)n2)cc1OC` was tested, and the “activity, negative = inhibition” value was inactive: 12.3%. For `CC1=NN(C(N)=S)C(=O)C1N=Nc1ccccc1` (stereo not drawn), the Potency was active: 22.4 µM. With `O=C(NCC(=O)N1CCN(S(=O)(=O)c2cccs2)CC1)c1ccc(Cl)cc1` the “activity, negative = inhibition” value was inactive: -3.88%. For `COc1ccc(C(C)(C)C)cc1S(=O)(=O)N1CCN(C)CC1`, the Potency was inconclusive [inhibitor, partial curve]. In the case of `Fc1cnc(N2CCN(c3ccccc3)CC2)nc1N1CCN(c2ccccc2)CC1`, the Potency is reported as inconclusive [inhibitor, single point]. `COc1cc2[nH]c(=O)n(CCC(=O)N3CCN(Cc4ccc5c(c4)OCO5)CC3)c(=O)c2cc1OC` was tested, and the Potency was inconclusive [inhibitor, single point]. With `NS(=O)(=O)c1ccc(NC(=O)COC(=O)C2(c3ccccc3F)CCCC2)cc1` the Potency was inconclusive [inhibitor, single point]. With `CN1CCN(C(=O)NCC23CC4CC(CC(C4)C2)C3)CC1` the “activity, negative = inhibition” value was inactive: -13.2%. With `Cc1ccnc(NS(=O)(=O)c2ccc(NC(=O)C3COc4ccccc4O3)cc2)n1` (stereo not drawn) the “activity, negative = inhibition” value was inactive: -4.85%. With `O=C1CC(c2c(F)cccc2Cl)C2=C(COC2=O)N1` (stereo not drawn) the Potency was inconclusive [inhibitor, single point]. With `CN1CCN(CCCCOc2ccccc2-c2ccccc2)CC1` the Potency was active: 10 µM. In the case of `O=C(c1cc2ccccc2o1)N1CCN(c2ccccc2Cl)CC1`, the Potency is reported as inconclusive [inhibitor, partial curve]. In the case of `Cc1ccc(SCc2ccc(C(=O)N3CCCC3)cc2)cc1`, the Potency is reported as inconclusive [inhibitor, single point]. In the case of `Nc1ccn([C@H]2O[C@H](CO)[C@@H]3[O][Sn]([c]4ccccc4)([c]4ccccc4)[O][C@H]32)c(=O)n1`, the activity, negative = inhibition is reported as inactive: -13.8% [at 13.5 µM]. In the case of `CCN(CC)c1ccc(C2=NNC(=O)CC2C)cc1[N+](=O)[O-]` (stereo not drawn), the Potency is reported as active: 12.6 µM. `CCCN(CCC)C1=N/C(=C\c2ccco2)C(=O)N1c1ccccc1` was tested, and the Potency was active: 14.1 µM. With `O=C1c2ccccc2C(=O)c2cc(NC(=O)C3CC3)ccc21` the Potency was inconclusive [inhibitor, partial curve, poor fit]. With `CC(NC(=O)/C(C#N)=C/c1cccs1)c1ccccc1` (stereo not drawn) the Potency was inconclusive [inhibitor, single point]. With `COc1cccc(NCc2cc3c(C(C)(C)C)nn(-c4ccccc4)c3[nH]c2=O)c1` the Potency was active: 12.6 µM. With `S=c1[nH]nc(-c2cccs2)n1Cc1ccccc1` the Potency was inconclusive [inhibitor, partial curve]. In the case of `COc1cc([N+](=O)[O-])ccc1NC(=O)CC(C)C`, the Potency is reported as inconclusive [inhibitor, single point]. For `Cc1cccc(-c2cc(C(=O)NCc3ccccn3)c3ccccc3n2)c1`, the Potency was inconclusive [inhibitor, single point]. With `O=C(CN1CCSC1=NCc1ccccc1)c1ccc(Cl)c(Cl)c1` the Potency was active: 12.6 µM. `CCOC(=O)c1c(NC(=O)CS(=O)(=O)c2cn(CC)c3ccccc23)sc2c1CCCCC2` was tested, and the Potency was active: 10 µM. With `Nc1nc(NC(=O)Cc2ccccc2)nn1-c1ccccc1` the “activity, negative = inhibition” value was inactive: 2.08%. In the case of `COc1ccc2nc3oc(C(=O)Nc4ccc(OC)c(OC)c4)cc3cc2c1`, the Potency is reported as inconclusive [inhibitor, partial curve]. For `c1ccc2c(c1)[nH]c1nc(SCCN3CCOCC3)nnc12`, the Potency was inconclusive [inhibitor, single point]. With `CCc1c(C)nc(SCC(=O)Nc2ccc3c(c2)OCCO3)[nH]c1=O` the Potency was active: 11.2 µM. `N#C/C(=C\c1ccccc1[N+](=O)[O-])C(=O)NC1CCCCC1` was tested, and the Potency was active: 7.08 µM. For `CCCN(CCC)Cc1cc2ccccc2c2c1COC2`, the Potency was inconclusive [inhibitor, single point]. For `Oc1ccc(Cl)cc1C=Nc1ccc2c3c(cccc13)CC2`, the Potency was inconclusive [inhibitor, partial curve]. In the case of `O=C(NC(=S)NCC1CCCO1)c1ccc(Br)o1` (stereo not drawn), the Potency is reported as inconclusive [inhibitor, partial curve]. For `Cc1cccc(C)c1NC(=O)N1CCN(C2CCCCC2)CC1`, the “activity, negative = inhibition” value was inactive: 2.9%. For `Nc1nnc(SCC(=O)Nc2sc3c(c2C(=O)c2ccccc2)CCCC3)s1`, the Potency was active: 12.6 µM. With `CNC(=S)NNc1nc(C)cc(C)n1` the “activity, negative = inhibition” value was inactive: 22.2%. With `COCCNc1ncnc2ccc(-c3ccoc3)cc12` the Potency was inconclusive [inhibitor, partial curve]. `O=C(CCC1CCCN(c2ncccn2)C1)NCc1ccccc1F` (stereo not drawn) was tested, and the Potency was inconclusive [inhibitor, partial curve]. In the case of `O=C(O)c1ccccc1CSc1ncccc1C(=O)O`, the Potency is reported as inconclusive [inhibitor, single point]. With `O=S(=O)(N/N=C/c1ccc(OC2CSC2)cc1)c1ccccc1` the Potency was inconclusive [inhibitor, partial curve]. For `CCC(=O)Nc1ccc(C(=O)NNC(=O)c2ccc([N+](=O)[O-])cc2)cc1`, the “activity, negative = inhibition” value was inactive: 4.77%. In the case of `CCn1c(/C=C2/C(=O)N(C)c3ccccc32)nc2ccccc2c1=O`, the Potency is reported as active: 9.46 µM. In the case of `O=C(c1ccccc1)c1sc(N2CCOCC2)nc1-c1ccccc1`, the Potency is reported as inconclusive [inhibitor, single point]. For `Cc1ccc2c(CSc3nnc(N)s3)cc(=O)oc2c1`, the Potency was active: 22.4 µM. With `COc1ccc(C(C#N)c2ccc(Cl)nn2)cc1` (stereo not drawn) the Potency was inconclusive [inhibitor, single point]. For `C=CCSC1=N/C(=C\c2ccc(C)o2)C(=O)S1`, the Potency was inconclusive [inhibitor, single point]. With `COc1ccccc1-c1nnc2n1N=C(C)CS2` the “activity, negative = inhibition” value was inactive: -3.76%. With `COCCNC(=O)CSc1nc2cc(OC)c(OC)cc2c(=O)n1CCc1ccc(S(N)(=O)=O)cc1` the “activity, negative = inhibition” value was inactive: -3.39%. `Cn1c(=O)c(C(=O)CCl)c(N)n(CC2CC2)c1=O` was tested, and the Potency was active: 20 µM. With `COC(CNC(=O)c1cnn2c(C)c(Cc3ccccc3)c(C)nc12)OC` the Potency was inconclusive [inhibitor, single point]. `CCOC(=O)N/N=C\c1ccc(OC(=O)c2ccco2)cc1` was tested, and the Potency was inconclusive [inhibitor, full curve, poor fit]. For `COC(=O)c1cccc(N2C(=O)c3ccccc3S2(=O)=O)c1`, the “activity, negative = inhibition” value was inactive: -37.1%. `CCOC(=O)C1=C(C)NC2=C(C(=O)c3ccccc32)C1c1ccc(O)cc1` (stereo not drawn) was tested, and the “activity, negative = inhibition” value was inactive: 7.08%. `COC(=O)C1=C(C)NC(=S)NC1c1ccc(-c2ccccc2C(=O)OC)o1` (stereo not drawn) was tested, and the Potency was active: 15.8 µM. In the case of `O=C(Nc1ccc(F)cc1)NC1CCCCC1`, the “activity, negative = inhibition” value is reported as inactive: 7.39%. In the case of `O=C(C1CCC1)N1CCC(O)(c2cccc(F)c2)CC1`, the “activity, negative = inhibition” value is reported as inactive: 1.32%. For `CCN(CC)CC#CCOC(=O)[C@@](O)(c1ccccc1)C1CCCCC1`, the “activity, negative = inhibition” value was inactive: 1.58% [at 20.9 µM]. In the case of `CN(C)c1ccc(/C=N/NC(=O)C2CC2c2ccccc2)cc1` (stereo not drawn), the Potency is reported as inconclusive [inhibitor, partial curve]. With `Cn1c(=O)n(C)c2cc(/C=N/N=C3/NC(=O)C(CC(=O)O)S3)ccc21` (stereo not drawn) the “activity, negative = inhibition” value was inactive: 0.463%. With `COc1ccc(/C=C/C(=O)CC(O)(c2ccccc2)C(F)(F)F)cc1` (stereo not drawn) the Potency was inconclusive [inhibitor, single point]. For `O=C(Cc1cc(=O)[nH][nH]1)N/N=C/c1ccccc1Cl`, the “activity, negative = inhibition” value was inactive: 12.1%. For `O=C(NC(=S)Nc1ccc(CN2CCOCC2)cc1)c1ccc([N+](=O)[O-])cc1`, the Potency was inconclusive [inhibitor, single point]. With `O=C(c1cc2ccccc2oc1=O)N1CCN(Cc2ccc3c(c2)OCO3)CC1` the Potency was inconclusive [inhibitor, single point]. In the case of `Clc1cccc(Cl)c1/C=N\Nc1nccs1`, the Potency is reported as inconclusive [inhibitor, single point]. For `O=C(O)c1cc2c(s1)-c1ccccc1CC2`, the Potency was inconclusive [inhibitor, partial curve]. With `O=C(c1csnn1)N1CCC[C@@]2(CCN(c3cccc(-c4ccccc4)c3)C2)C1` the Potency was inconclusive [inhibitor, single point]. For `COc1ccc(/C=N/NC(=O)CSc2nnc(C)n2-c2ccccc2)c(OC)c1OC`, the “activity, negative = inhibition” value was inactive: 3.35%. With `Cc1ccccc1NC(=S)Nc1ccc(Br)cc1` the Potency was inconclusive [inhibitor, single point].

— PubChem BioAssay AID1030 (National Center for Advancing Translational Sciences (NCATS), 2008)
Potency means the concentration at half of the fitted maximal effect; tags describe the fitted curve by direction and shape.
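Wherever activity, negative = inhibition is given: plate controls were no enzyme wells and a reference inhibitor.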
